# Source: the supplement of paper PMC8728848
# The other results are listed elsewhere or left out.
# B1: LecB LY19 (Pseudomonas aeruginosa) (protein)
# chain: MATQGVFTLPANTQFGVTAFANSAGTQTVNVQVNNETVATFTGQSTNNGIIGSKVLNSGGGGKVQILVSVNGRSSDLVSAQVILANELNFALVGSEDSTDNDYNDAVVVINWPLG
# Legend:
# Experiment in all cases: glycan array binding signal (z-score within array); higher = stronger binding
# Conditions in all cases: glycan notation: IUPAC condensed, linker removed
# [1] = molecular target: Fuc(a1-2)Gal
# In short: (§1)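 The binding signal is a Z-score computed within each array and averaged over linkers. Arrays of the same protein sequence at different concentrations or buffers were also averaged together. Data originate from 3228 arrays in the Consortium for Functional Glycomics database, kept only where the protein sequence was available.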
# [2] = molecular target: Fuc(a1-2)Gal(b1-3)GalNAc
# In short: as §1
# [3] = molecular target: Fuc(a1-2)Gal(b1-3)GalNAc(a1-3)[Fuc(a1-2)]Gal(b1-4)Glc
# In short: as §1
# [4] = molecular target: Fuc(a1-2)Gal(b1-3)GalNAc(a1-3)[Fuc(a1-2)]Gal(b1-4)GlcNAc
# In short: as §1
# [5] = molecular target: Fuc(a1-2)Gal(b1-3)GalNAc(b1-3)Gal
# In short: as §1
# [6] = molecular target: Fuc(a1-2)Gal(b1-3)GalNAc(b1-3)Gal(a1-4)Gal(b1-4)Glc
# In short: as §1
# [7] = molecular target: Fuc(a1-2)Gal(b1-3)GalNAc(b1-4)[Neu5Ac(a2-3)]Gal(b1-4)Glc
# In short: as §1
# [8] = molecular target: Fuc(a1-2)Gal(b1-3)GlcNAc
# In short: as §1
# [9] = molecular target: Fuc(a1-2)Gal(b1-3)GlcNAc(b1-2)Man(a1-3)[Fuc(a1-2)Gal(b1-3)GlcNAc(b1-2)Man(a1-6)]Man(b1-4)GlcNAc(b1-4)GlcNAc
# In short: as §1
# [10] = molecular target: Fuc(a1-2)Gal(b1-3)GlcNAc(b1-2)Man(a1-3)[Fuc(a1-2)Gal(b1-3)GlcNAc(b1-2)Man(a1-6)]Man(b1-4)GlcNAc(b1-4)[Fuc(a1-6)]GlcNAc
# In short: as §1
# [11] = molecular target: Fuc(a1-2)Gal(b1-3)GlcNAc(b1-3)Gal(b1-4)Glc
# In short: as §1
# [12] = molecular target: Fuc(a1-2)Gal(b1-3)GlcNAc(b1-3)GalNAc
# In short: as §1
# [13] = molecular target: Fuc(a1-2)Gal(b1-3)GlcNAc(b1-3)[Fuc(a1-2)Gal(b1-3)GlcNAc(b1-6)]GalNAc
# In short: as §1
# [14] = molecular target: Fuc(a1-2)Gal(b1-3)GlcNAc(b1-3)[Gal(b1-4)GlcNAc(b1-6)]Gal(b1-4)Glc
# In short: as §1
# [15] = molecular target: Fuc(a1-2)Gal(b1-3)GlcNAc(b1-3)[Neu5Ac(a2-6)Gal(b1-4)GlcNAc(b1-6)]Gal(b1-4)Glc
# In short: as §1
# [16] = molecular target: Fuc(a1-2)Gal(b1-3)GlcNAc6S
# In short: as §1
# [17] = molecular target: Fuc(a1-2)Gal(b1-3)[Fuc(a1-4)]GlcNAc
# In short: as §1
# [18] = molecular target: Fuc(a1-2)Gal(b1-3)[Fuc(a1-4)]GlcNAc(b1-2)Man(a1-3)[Fuc(a1-2)Gal(b1-3)[Fuc(a1-4)]GlcNAc(b1-2)Man(a1-3)]Man(b1-4)GlcNAc(b1-4)GlcNAc
# In short: as §1
# [19] = molecular target: Fuc(a1-2)Gal(b1-3)[Fuc(a1-4)]GlcNAc(b1-2)Man(a1-3)[Fuc(a1-2)Gal(b1-3)[Fuc(a1-4)]GlcNAc(b1-2)Man(a1-6)]Man(b1-4)GlcNAc(b1-4)[Fuc(a1-6)]GlcNAc(b1-4)[Fuc(a1-6)]GlcNAc
# In short: as §1
# [20] = molecular target: Fuc(a1-2)Gal(b1-3)[Fuc(a1-4)]GlcNAc(b1-3)[Fuc(a1-3)[Gal(b1-4)]GlcNAc(b1-6)]Gal(b1-4)Glc
# In short: as §1
# [21] = molecular target: Fuc(a1-2)Gal(b1-3)[Fuc(a1-4)]GlcNAc(b1-3)[Gal(b1-4)GlcNAc(b1-6)]Gal(b1-4)Glc
# In short: as §1
# [22] = molecular target: Fuc(a1-2)Gal(b1-4)Glc
# In short: as §1
# [23] = molecular target: Fuc(a1-2)Gal(b1-4)Glc6S
# In short: as §1
# [24] = molecular target: Fuc(a1-2)Gal(b1-4)GlcNAc
# In short: as §1
# [25] = molecular target: Fuc(a1-2)Gal(b1-4)GlcNAc(b1-2)Man
# In short: as §1
# [26] = molecular target: Fuc(a1-2)Gal(b1-4)GlcNAc(b1-2)Man(a1-3)[Fuc(a1-2)Gal(b1-4)GlcNAc(b1-2)Man(a1-6)]Man(b1-4)GlcNAc(b1-4)GlcNAc
# In short: as §1
# [27] = molecular target: Fuc(a1-2)Gal(b1-4)GlcNAc(b1-2)Man(a1-3)[Fuc(a1-2)Gal(b1-4)GlcNAc(b1-2)Man(a1-6)]Man(b1-4)GlcNAc(b1-4)[Fuc(a1-6)]GlcNAc
# In short: as §1
# [28] = molecular target: Fuc(a1-2)Gal(b1-4)GlcNAc(b1-2)[Fuc(a1-2)Gal(b1-4)GlcNAc(b1-4)]Man(a1-3)[Fuc(a1-2)Gal(b1-4)GlcNAc(b1-2)Man(a1-6)]Man(b1-4)GlcNAc(b1-4)GlcNAc
# In short: as §1
# [29] = molecular target: Fuc(a1-2)Gal(b1-4)GlcNAc(b1-3)Gal(b1-4)GlcNAc
# In short: as §1
# [30] = molecular target: Fuc(a1-2)Gal(b1-4)GlcNAc(b1-3)Gal(b1-4)GlcNAc(b1-2)Man(a1-3)[Fuc(a1-2)Gal(b1-4)GlcNAc(b1-3)Gal(b1-4)GlcNAc(b1-2)Man(a1-6)]Man(b1-4)GlcNAc(b1-4)GlcNAc
# In short: as §1
# [31] = molecular target: Fuc(a1-2)Gal(b1-4)GlcNAc(b1-3)Gal(b1-4)GlcNAc(b1-3)Gal(b1-4)GlcNAc
# In short: as §1
# [32] = molecular target: Fuc(a1-2)Gal(b1-4)GlcNAc(b1-3)GalNAc
# In short: as §1
# [33] = molecular target: Fuc(a1-2)Gal(b1-4)GlcNAc(b1-3)[Fuc(a1-2)Gal(b1-4)GlcNAc(b1-6)]GalNAc
# In short: as §1
# [34] = molecular target: Fuc(a1-2)Gal(b1-4)GlcNAc(b1-3)[Fuc(a1-3)[Gal(b1-4)]GlcNAc(b1-6)]Gal(b1-4)Glc
# In short: as §1
# [35] = molecular target: Fuc(a1-2)Gal(b1-4)GlcNAc(b1-6)GalNAc
# In short: as §1
# [36] = molecular target: Fuc(a1-2)Gal(b1-4)GlcNAc6S
# In short: as §1
# [37] = molecular target: Fuc(a1-2)Gal(b1-4)[Fuc(a1-3)]GlcNAc
# In short: as §1
# [38] = molecular target: Fuc(a1-2)Gal(b1-4)[Fuc(a1-3)]GlcNAc(b1-2)Man(a1-3)[Fuc(a1-2)Gal(b1-4)[Fuc(a1-3)]GlcNAc(b1-2)Man(a1-6)]Man(b1-4)GlcNAc(b1-4)[Fuc(a1-6)]GlcNAc
# In short: as §1
# [39] = molecular target: Fuc(a1-2)Gal(b1-4)[Fuc(a1-3)]GlcNAc(b1-2)[Fuc(a1-2)Gal(b1-4)[Fuc(a1-3)]GlcNAc(b1-4)]Man(a1-3)[Fuc(a1-2)Gal(b1-4)[Fuc(a1-3)]GlcNAc(b1-2)Man(a1-6)]Man(b1-4)GlcNAc(b1-4)GlcNAc
# In short: as §1
# [40] = molecular target: Fuc(a1-2)Gal(b1-4)[Fuc(a1-3)]GlcNAc(b1-3)Gal(b1-4)[Fuc(a1-3)]GlcNAc
# In short: as §1
# [41] = molecular target: Fuc(a1-2)Gal(b1-4)[Fuc(a1-3)]GlcNAc(b1-3)Gal(b1-4)[Fuc(a1-3)]GlcNAc(b1-3)Gal(b1-4)[Fuc(a1-3)]GlcNAc
# In short: as §1
# [42] = molecular target: Fuc(a1-2)Gal(b1-4)[Fuc(a1-3)]GlcNAc(b1-3)GalNAc
# In short: as §1
# [43] = molecular target: Fuc(a1-2)Gal(b1-4)[Fuc(a1-3)]GlcNAc(b1-3)[Neu5Ac(a2-6)Gal(b1-4)GlcNAc(b1-6)]Gal(b1-4)Glc
# In short: as §1
# [44] = molecular target: Fuc(a1-2)Gal3S(b1-4)GlcNAc
# In short: as §1
# [45] = molecular target: Fuc(a1-2)Gal6S(b1-3)GlcNAc
# In short: as §1
binder,measurement,setting,value
B1,glycan array binding signal (z-score),[1],2.02
same,glycan array binding signal (z-score),[2],0.684
same,glycan array binding signal (z-score),[3],1.31
same,glycan array binding signal (z-score),[4],0.778
same,glycan array binding signal (z-score),[5],-0.059
same,glycan array binding signal (z-score),[6],1.77
same,glycan array binding signal (z-score),[7],0.344
same,glycan array binding signal (z-score),[8],1.63
same,glycan array binding signal (z-score),[9],0.156
same,glycan array binding signal (z-score),[10],0.84
same,glycan array binding signal (z-score),[11],1.85
same,glycan array binding signal (z-score),[12],1.49
same,glycan array binding signal (z-score),[13],0.059
same,glycan array binding signal (z-score),[14],0.621
same,glycan array binding signal (z-score),[15],0.085
same,glycan array binding signal (z-score),[16],1.31
same,glycan array binding signal (z-score),[17],1.39
same,glycan array binding signal (z-score),[18],0.406
same,glycan array binding signal (z-score),[19],2.4
same,glycan array binding signal (z-score),[20],1.32
same,glycan array binding signal (z-score),[21],1.21
same,glycan array binding signal (z-score),[22],1.5
same,glycan array binding signal (z-score),[23],1.37
same,glycan array binding signal (z-score),[24],1.54
same,glycan array binding signal (z-score),[25],-0.476
same,glycan array binding signal (z-score),[26],1.84
same,glycan array binding signal (z-score),[27],1.24
same,glycan array binding signal (z-score),[28],1.72
same,glycan array binding signal (z-score),[29],3.29
same,glycan array binding signal (z-score),[30],-0.396
same,glycan array binding signal (z-score),[31],3.69
same,glycan array binding signal (z-score),[32],-0.53
same,glycan array binding signal (z-score),[33],1.24
same,glycan array binding signal (z-score),[34],1.59
same,glycan array binding signal (z-score),[35],1
same,glycan array binding signal (z-score),[36],1.24
same,glycan array binding signal (z-score),[37],2.54
same,glycan array binding signal (z-score),[38],5.32
same,glycan array binding signal (z-score),[39],0.085
same,glycan array binding signal (z-score),[40],5.07
same,glycan array binding signal (z-score),[41],3.27
same,glycan array binding signal (z-score),[42],-0.338
same,glycan array binding signal (z-score),[43],0.417
same,glycan array binding signal (z-score),[44],1.58
same,glycan array binding signal (z-score),[45],1.56
